# Laboratory results taken from the supplement of paper PMC12462457.
# Structures can show the parent of a compound that is named as a salt. ± gives the standard deviation of the averaged measurements. Some of the results follow.
# System: OVCAR8
# Assay: cell count relative to DMSO vehicle (fold change); OVCAR8 is a high-grade serous ovarian cancer line and CX-5461 an RNA polymerase I inhibitor; higher = more surviving senescent cells (less killing)
# Conditions: senescence inducer: CX-5461 3 µM 48 h, then 6 d recovery (CX senescent), exposure time 24 h
Compound,cell count (compound dose 1 µM),cell count (compound dose 5 µM)
C=CCSSSCC=C,1.21 ± 0.38,1.07 ± 0.15
Cc1cc(C(C)(C)C)c(O)c(C(C)(C)C)c1,1.09 ± 0.037,1.17 ± 0.16
C/C(=C\c1csc(C)n1)[C@@H]1C[C@@H]2O[C@]2(C)CCC[C@H](C)[C@H](O)[C@@H](C)C(=O)C(C)(C)[C@@H](O)CC(=O)N1 [Ixabepilone],0.973 ± 0.1,1.06 ± 0.28
C1COC(NC(C2CC2)C2CC2)=N1 [Rilmenidine (hemifumarate)],0.987 ± 0.081,1.2 ± 0.2
O=C(O)c1cn(C2CC2)c2cc(N3CCNCC3)c(F)cc2c1=O,1.17 ± 0.22,1.01 ± 0.13
CN1CC(=O)N2[C@H](c3ccc4c(c3)OCO4)c3[nH]c4ccccc4c3C[C@@H]2C1=O [Tadalafil],1.1 ± 0.094,1.02 ± 0.12
CCN(C(=O)c1c(O)c2c(Cl)cccc2n(C)c1=O)c1ccccc1 [Laquinimod],1.07 ± 0.15,1.02 ± 0.059
CC(NC(=O)c1ccccc1/N=C/c1c(O)ccc2ccccc12)c1ccccc1 (stereo not given) [Sirtinol],1 ± 0.12,1.14 ± 0.086
O=C(Nc1nc2ccc(NC(=O)C34CC5CC(CC(C5)C3)C4)cc2s1)c1ccccc1,1.03 ± 0.018,1.03 ± 0.071
CCOC(=O)c1cnc2ccc(-c3cncc(NS(=O)(=O)c4ccccc4)c3)cn12,1.06 ± 0.089,0.485 ± 0.0057
COc1cc2cc(c1Cl)N(C)C(=O)CC(O)C1(C)OC1C(C)C1CC(O)(NC(=O)O1)C(OC)/C=C/C=C(\C)C2 (stereo not given) [Maytansinol],1.11 ± 0.063,1.01 ± 0.076
COc1cc(C(=O)N2CCC(N3CCN(C)CC3)CC2)ccc1Nc1ncc2c(n1)N(C)c1ccccc1C(=O)N2C,1.07 ± 0.17,1.02 ± 0.033
Cc1[nH]c2ccc(F)cc2c1-c1nc2c3cccnc3c3ncccc3c2[nH]1,1.17 ± 0.12,1.101 ± 0.0035
Cc1ccc(-c2cn3c4c(sc3n2)CCCC4)cc1 [Pifithrin-β (hydrobromide)],1.03 ± 0.093,1.17 ± 0.16
CC(C)=CCC[C@](C)(O)[C@H]1CC[C@]2(C)[C@@H]1[C@H](O)C[C@@H]1[C@@]3(C)CC[C@H](O)C(C)(C)[C@@H]3CC[C@]12C [(20S)-Protopanaxadiol],1.05 ± 0.037,1.04 ± 0.1
CCCCCCCC(=O)/C=C/c1ccc(O)c(OC)c1 [(E)-[6]-Dehydroparadol],1.01 ± 0.0021,1.13 ± 0.1
Cc1cc2nc3c(=O)[nH]c(=O)nc-3n(C)c2cc1C=O,1.02 ± 0.16,1 ± 0.042
O=C(O)C(=O)O.[NH-][C@@H]1CCCC[C@H]1[NH-].[Pt+2],1.1 ± 0.085,1.01 ± 0.084
COc1ccc(Cn2ccc3ccc(C(=O)NO)cc32)cc1,0.913 ± 0.08,1.088 ± 0.0014
CC#CC(=O)N1CC[C@@H](n2c(=O)n(-c3ccc(Oc4ccccc4)cc3)c3c(N)ncnc32)C1 [Tirabrutinib],1.16 ± 0.27,1.08 ± 0.35
CC1(C)O[C@H]2CC(=O)OC[C@]23[C@H]2CC[C@@]4(C)[C@H](c5ccoc5)OC(=O)[C@H]5O[C@]54[C@]2(C)C(=O)C[C@@H]13 [Limonin],1.09 ± 0.031,1.18 ± 0.081
CO[C@H]1/C=C\C=C(/C)C(=O)NC2=CC(=O)C(NCCN(C)C)=C(C[C@@H](C)C[C@H](OC)[C@H](O)[C@@H](C)/C=C(\C)[C@@H]1OC(N)=O)C2=O [Alvespimycin (hydrochloride)],1.09 ± 0.013,1.002 ± 0.0028

Compound,cell count (compound dose 1 µM),cell count (compound dose 5 µM)
CC1=NN(c2ccccc2)C(=O)C1,1.07 ± 0.16,0.995 ± 0.18
CC(=O)c1ccc2c(c1)c1cc(C(C)=O)ccc1n2CCNC(C)C [CBL0137 hydrochloride],1.17 ± 0.14,0.852 ± 0.013
O=C(/C=C/c1ccc(O)cc1)CC(=O)/C=C/c1ccc(O)cc1 [Bisdemethoxycurcumin],1.12 ± 0.05,1.14 ± 0.1
CN[C@@H](C)C(=O)N[C@H]1CN(C(=O)CC(C)C)CC[C@H]2CC[C@@H](C(=O)NC(c3ccccc3)c3ccccc3)N2C1=O [Xevinapant],0.969 ± 0.055,0.81 ± 0.018
Cc1cc(=O)[nH]c(=S)[nH]1,1.0425 ± 0.00071,1.13 ± 0.072
CC[C@]1(O)C[C@H]2CN(CCc3c([nH]c4ccccc34)[C@@](C(=O)OC)(c3cc4c(cc3OC)N(C=O)[C@H]3[C@@](O)(C(=O)OC)[C@H](OC(C)=O)[C@]5(CC)C=CCN6CC[C@]43[C@@H]65)C2)C1 [Vincristine (sulfate)],0.975 ± 0.059,0.7 ± 0.069
CC(=O)Nc1ccc(C(=O)Nc2ccc(F)cc2N)cc1,1.19 ± 0.42,1.36 ± 0.44
Oc1ccc(/C=C/c2cc(O)cc(O)c2)cc1,1.11 ± 0.1,1.1 ± 0.063
CCN(CC)CCNC(=O)c1c(C)[nH]c(/C=C2\C(=O)Nc3ccc(F)cc32)c1C [Sunitinib Malate],1.15 ± 0.18,0.908 ± 0.24
CCN(CC)CCNC(=O)c1c(C)[nH]c(/C=C2\C(=O)Nc3ccc(F)cc32)c1C [Sunitinib],1.08 ± 0.16,0.969 ± 0.017
CC(C)c1cc2c(cc1S(=O)(=O)O)[C@@]1(C)CCC[C@@](C)(C(=O)O)[C@@H]1CC2 [Ecabet (sodium)],1.06 ± 0.12,1.01 ± 0.073
Nc1nc2[nH]cnc2c(=S)[nH]1,1.109 ± 0.011,1.1 ± 0.059
"O=C(/C=C/c1ccc(O)c(O)c1)O[C@@H]1[C@H](O)C[C@@](O)(C(=O)O)C[C@H]1OC(=O)/C=C/c1ccc(O)c(O)c1 (stereo in doubt) [3,4-Dicaffeoylquinic acid]",1.16 ± 0.19,1.1 ± 0.13
CC(NC(=O)C(Cc1ccccc1)NC(=O)OCc1ccccc1)C(=O)CF (stereo not given),1.11 ± 0.041,1.13 ± 0.15
C=CCc1cccc(/C=N/NC(=O)CN2CCN(Cc3ccccc3)CC2)c1O,1.1 ± 0.081,1.19 ± 0.12
Cc1cc(C)c(-c2n[nH]c(C)c2C)cc1C(=O)N1CC(c2ccc(C#N)cc2)C1,1.02 ± 0.1,1.09 ± 0.11
CC(C(=O)O)c1ccc(-c2ccccc2)c(F)c1 (stereo not given),0.928 ± 0.18,1.11 ± 0.28
COc1cc2c(N3CCN(C(=O)Nc4ccc(OC(C)C)cc4)CC3)ncnc2cc1OCCCN1CCCCC1 [Tandutinib],1.05 ± 0.12,1.01 ± 0.15
Oc1cc(O)c2c(c1)O[C@H](c1ccc(O)c(O)c1)[C@H](O)C2 [(-)-Epicatechin],1.06 ± 0.12,1.1 ± 0.2
CC(C)C[C@H](NC(=O)[C@@H](NC(=O)c1cccc(-c2ccccc2)n1)[C@@H](C)O)B(O)O [Delanzomib],1.18 ± 0.29,1.34 ± 0.12
CNC(=O)c1cc(Oc2ccc(NC(=O)Nc3cc(C(C)(C)C)nn3-c3ccc4ncccc4c3)c(F)c2)ccn1 [Rebastinib (DCC-2036)],1.34 ± 0.19,1.25 ± 0.22
COc1cc(/C=C/c2ccc(NC(=O)/C=C/c3cc(OC)c(OC)c(OC)c3)cc2)cc(OC)c1,1.19 ± 0.22,1.097 ± 0.0035

Compound,cell count (compound dose 1 µM),cell count (compound dose 5 µM)
CC(C)=CCc1c(O)ccc(C(=O)/C=C/c2ccc(O)cc2)c1O [Isobavachalcone],1.09 ± 0.018,1.04 ± 0.073
COc1ccc(-c2cc(=O)c3c(O)c(OC)c(O[C@@H]4O[C@H](CO[C@@H]5O[C@@H](C)[C@H](O)[C@@H](O)[C@H]5O)[C@@H](O)[C@H](O)[C@H]4O)cc3o2)cc1,1.15 ± 0.19,1.06 ± 0.12
O=C1N=C(N2CCN(CCO)CC2)S/C1=C\c1ccc(-c2ccccc2)cc1,0.992 ± 0.16,1.19 ± 0.17
CC1(C)C=Cc2cc(CCn3c4ccccc4c4ccccc43)cc(C=O)c2O1,1.1 ± 0.033,1.04 ± 0.17
COc1cc2c(=O)c(-c3ccc(O)cc3)coc2cc1O [Glycitein],0.554 ± 0.0078,0.59 ± 0.016
C/C=C1\C(=O)C[C@H]2[C@@H]3CCC4=CC(=O)CC[C@]4(C)[C@H]3CC[C@]12C [Guggulsterone],1.26 ± 0.21,1.08 ± 0.12
Nc1ccn([C@@H]2C(F)=C(CO)[C@@H](O)[C@H]2O)c(=O)n1,1.15 ± 0.19,1.15 ± 0.19
CCC[C@H](C)Oc1nc(N)c2[nH]c(=O)n(CCCCCN3CCCCC3)c2n1,1.16 ± 0.23,1.11 ± 0.26
NC(=O)c1cccc2cn(-c3ccc([C@@H]4CCCNC4)cc3)nc12 [Niraparib],1.04 ± 0.17,1.15 ± 0.083
NC(=O)c1cccc2cn(-c3ccc([C@@H]4CCCNC4)cc3)nc12 [Niraparib (MK-4827) tosylate],1.1115 ± 0.00071,0.848 ± 0.054
CO[C@@H]1[C@H](N(C)C(=O)c2ccccc2)C[C@H]2O[C@]1(C)n1c3ccccc3c3c4c(c5c6ccccc6n2c5c31)C(=O)NC4 [Midostaurin],0.733 ± 0.0085,0.652 ± 0.14
CC[C@H](C)[C@H](NC(=O)OCc1ccccc1)C(=O)N[C@H](C=O)CC(C)C [Z-Ile-Leu-aldehyde],1.15 ± 0.11,1.1 ± 0.042
CNC(=O)c1cccc(-c2ccc3c(N4CCOC[C@@H]4C)nc(N4CCOC[C@@H]4C)nc3n2)c1 [Vistusertib],1.18 ± 0.34,1.1 ± 0.27
CCc1cc(Nc2nccc(-c3c(-c4ccc(OC)c(C(=O)Nc5c(F)cccc5F)c4)nc4ccccn34)n2)c(OC)cc1N1CCC(N2CCN(S(C)(=O)=O)CC2)CC1,1 ± 0.017,0.697 ± 0.11
COCCOc1cnc2ccn([C@H](C)c3nnc4c(F)cc(-c5cnn(C)c5)cn34)c(=O)c2c1,0.93 ± 0.031,0.9455 ± 0.005
Cc1cc(-c2ncc(-c3cccnc3)cc2/C=C/c2ccccc2)cnc1-c1cccnc1 [Pyridoclax],1.14 ± 0.14,0.75 ± 0.18
O=C1[C@H](Cc2ccc(O)cc2)N2C(=O)CCN(C(=O)NCc3ccccc3)[C@H]2CN1Cc1cccc2ccccc12,1.09 ± 0.11,1.13 ± 0.19
COc1ccc(-c2oc3cc(O)cc(O)c3c(=O)c2O)cc1 [Kaempferide],0.974 ± 0.034,1.07 ± 0.18
C[C@@H]1O[C@@H](O[C@H]2[C@H](O[C@H]3CC[C@]4(C)[C@H]5CC=C6[C@@H]7CC(C)(C)CC[C@]7(C(=O)O)CC[C@@]6(C)[C@]5(C)CC[C@H]4C3(C)C)OC[C@H](O[C@@H]3O[C@H](CO)[C@@H](O)[C@H](O)[C@H]3O)[C@@H]2O)[C@H](O)[C@H](O)[C@H]1O [Hederacolchiside A1],1.073 ± 0.0035,0.006 ± 0.0085
COC(=O)Nc1nc2cc(C(=O)c3ccccc3)ccc2[nH]1 [Mebendazole],1.17 ± 0.15,1.18 ± 0.19
CC1C(=O)OC2C(O)C34C5CC(C(C)(C)C)C36C(OC(=O)C6O)OC4(C(=O)O5)C12O (stereo not given) [Ginkgolide B],1.1 ± 0.081,0.958 ± 0.11
